Read counts are not given, so values of variants with three or more changes are uncertain.
B1: OR4K15 (parent)
chain: GUUAACGGUCAUAGGCCAUGGAAACUAGGAGCACCAUUUCGCUGCCAGUGAAGAAAUGAACAAAGAAAAUCUGGGCCAGGCAGGCAUCAAAAGAAAUAGUCUUGCGCUCAACCAGAAAGUCUGUAAUCAUUUUAAGGGUA

Variants of: B1
Test: self-cleavage, relative activity (ratio to wild type); higher = more cleavage; in vitro, sequencing; the parent is a self-cleaving ribozyme
Work on A56G A62U A67C U120C yielded a self-cleavage of 0.92.
Variant A23G U26C A56G has a self-cleavage of 0.47.
Work on A54G A111U A114G A117G yielded a self-cleavage of 0.03.
With A68G A90C U132C the self-cleavage was 0.81.
A47U A60C C81A showed a self-cleavage of 0.26.
Variant U37G U87C A94G A117G U122C has a self-cleavage of 0.43.
Variant G15A C16U U87C A94G has a self-cleavage of 2.27.
Variant A47G A59G A63U A68G has a self-cleavage of 1.11.
U19A C85U U108C A126G gave a self-cleavage of 0.
In the case of A56G A78U A89G A92G U122C, the self-cleavage is reported as 0.04.
U9A A18U A23U U39C A92G showed a self-cleavage of 1.3.
For U9C A66G A95G, the self-cleavage was 2.2.
In the case of A5G A62G A66G, the self-cleavage is reported as 1.09.
In the case of A5G U87C A114G, the self-cleavage is reported as 0.17.
For A4G U19A U49A A82G A118G, the self-cleavage was 0.88.
U43C A59G A78G U108C showed a self-cleavage of 0.01.
Work on U39C A52G A78G A90G A94G U103C A111G A117G yielded a self-cleavage of 0.01.
Work on A4G A23G U120A U130C yielded a self-cleavage of 0.53.
A55U A63G A98G showed a self-cleavage of 0.35.
C32U A92G A114U gave a self-cleavage of 0.09.
For A22G A90G U100A A118G, the self-cleavage was 0.14.
Work on A5C A95G G115U yielded a self-cleavage of 0.35.
G14A A51G A64G gave a self-cleavage of 1.24.
In the case of A51G A59G C101U U102C, the self-cleavage is reported as 1.79.
In the case of U9C U49C U70C, the self-cleavage is reported as 1.68.
With A52G A55G A63U U70C U122C the self-cleavage was 0.18.
Variant G65U A91G A126G has a self-cleavage of 0.32.
In the case of U2G A30U A33G A91G U108C U127C, the self-cleavage is reported as 0.
In the case of A63G A111U U127C, the self-cleavage is reported as 0.05.
U38C G83U U100A G123A U127C gave a self-cleavage of 0.04.
For U38A A52G A60G, the self-cleavage was 1.1.
U3C A52G A90G G137U showed a self-cleavage of 0.73.
Variant A27G U57C G65U U131C has a self-cleavage of 0.97.
Work on A22U A60U A134U yielded a self-cleavage of 1.56.
A66G A69G A91G U132C showed a self-cleavage of 1.19.
In the case of A22U U38C U43C A55G, the self-cleavage is reported as 1.87.
A54U A60U A68G showed a self-cleavage of 1.22.
With G65A U87C A111U A117G the self-cleavage was 0.06.
In the case of A89G A91G A92G G93A, the self-cleavage is reported as 1.55.
With A30U A56G A67G A68U the self-cleavage was 1.54.
With A54G A55G A82G the self-cleavage was 0.71.
U38C A52G A62G showed a self-cleavage of 1.13.
A18U A114U U133C showed a self-cleavage of 0.19.
In the case of A59U A64G A90G A98G U124G, the self-cleavage is reported as 0.03.
With U37C A47G A62G the self-cleavage was 0.75.
Work on U49A A54U A94G A95G yielded a self-cleavage of 1.6.
With A13C A59G U72G A94G the self-cleavage was 0.36.
In the case of A63G A82G A96G, the self-cleavage is reported as 0.99.
U2C A36U A52G showed a self-cleavage of 1.2.
For U49C A60G U120C, the self-cleavage was 0.8.
In the case of U12A U57C A86C A92U, the self-cleavage is reported as 1.03.
U127C U130C G137A gave a self-cleavage of 0.59.
With U87C U100G C112G the self-cleavage was 0.02.
A18G U70C U120C gave a self-cleavage of 0.27.
Variant A23U C46U A62G U70C has a self-cleavage of 0.76.
U102C C113A C121G U130C gave a self-cleavage of 0.
A22G U26C A92U A94G U97C A118G gave a self-cleavage of 0.41.
Variant A51U A67G U132C has a self-cleavage of 1.37.
With A11G A47U A51G A67G A110G the self-cleavage was 0.09.
Work on A60G U103C A114G yielded a self-cleavage of 0.37.
A24G U72A G84U A114G showed a self-cleavage of 0.04.
U43A A51G A110G gave a self-cleavage of 0.08.
Variant G41U A126G A129U has a self-cleavage of 0.59.
A55U A95G U122C A126G showed a self-cleavage of 1.87.
U100C U108A A117G U122A gave a self-cleavage of 0.
In the case of A5G A114G U122C, the self-cleavage is reported as 0.13.
Work on U3C A5G A55G A96G yielded a self-cleavage of 0.95.
Variant A24G G44A A51G G137A has a self-cleavage of 0.85.
For A13U A116G U120C, the self-cleavage was 0.02.
With G15U A63G C128U A129C the self-cleavage was 0.5.
Variant A22G C76A U103C U130C has a self-cleavage of 0.06.
A30G A69G A82G U87C showed a self-cleavage of 0.45.
For A11U A36G U43C A134G, the self-cleavage was 1.16.
For U2C A18U A68G U132A, the self-cleavage was 0.6.
A30G A55G A59G gave a self-cleavage of 0.49.
In the case of U9C A23G G73U, the self-cleavage is reported as 0.23.
A55G U132G U133G gave a self-cleavage of 1.23.
In the case of A55G A69G U97C, the self-cleavage is reported as 1.13.
In the case of A30U U87C A91G A111U, the self-cleavage is reported as 0.03.
With U39G U49C A54G A69G the self-cleavage was 1.12.
Variant A23G A36G U49C has a self-cleavage of 0.2.
In the case of U19C A82G A96G U120C, the self-cleavage is reported as 0.21.
With U49C A51G U57C A60G U132C the self-cleavage was 0.89.
With A5G A111U A126U the self-cleavage was 0.06.
U49C A94G A96G gave a self-cleavage of 1.33.
Work on A59G A64G A67G yielded a self-cleavage of 1.33.
For U43A A94U U108C U132C, the self-cleavage was 0.01.
In the case of A89C A94G A96G U103A, the self-cleavage is reported as 0.74.
With U87C C105U U120C the self-cleavage was 0.02.
U38A C76U A114U gave a self-cleavage of 0.07.
A63G A89G U100C showed a self-cleavage of 2.17.
Variant U43C A52G A64G A90G A92G U108C A117G has a self-cleavage of 0.02.
Work on U2C A4G A30G yielded a self-cleavage of 0.91.
In the case of A18U A30G A126G, the self-cleavage is reported as 1.82.
Variant A5G A92G A129U has a self-cleavage of 0.57.
Work on U19C U26C G48A A52G yielded a self-cleavage of 1.13.
In the case of A30U A60U A64G G79A A111U, the self-cleavage is reported as 0.04.
For U9A U19C A30G U87A A125U, the self-cleavage was 1.77.
G31U A36G A66G A94G A117G gave a self-cleavage of 1.82.
For U2C U87C U120A, the self-cleavage was 0.28.
Variant A27G U102C U131C has a self-cleavage of 1.99.
Variant U37C U43C U127C has a self-cleavage of 0.84.
In the case of C40U U102C A117U, the self-cleavage is reported as 0.74.
In the case of A4G A18G A78G U108C U120C U130C, the self-cleavage is reported as 0.01.
U38C A63G A89C A117G gave a self-cleavage of 1.59.
In the case of A55G A89G A140G, the self-cleavage is reported as 0.49.
Variant U26C A27U A118U has a self-cleavage of 0.97.
For U19C G80A A82G, the self-cleavage was 0.15.
Work on U9A U87C A118C C128U yielded a self-cleavage of 0.34.
Work on U2C U9C A68G A91G U139A yielded a self-cleavage of 1.13.
A4G A60G A78G gave a self-cleavage of 0.46.
In the case of U37C U43A A51G A67U, the self-cleavage is reported as 1.92.
U38C A51G U130C showed a self-cleavage of 1.06.
A90G A111G A116G showed a self-cleavage of 0.01.
For A33U A47U U87C U108C U130C, the self-cleavage was 0.
With A5U A18U U37C A51G the self-cleavage was 0.84.
A86G U100C A110U gave a self-cleavage of 2.27.
Variant A66G A96G A117G A118G has a self-cleavage of 1.45.
A54G U72A C112U showed a self-cleavage of 0.03.
A36G A69G C81A C85U U100C U122C gave a self-cleavage of 0.53.
Work on A30G U87A A111G A125G yielded a self-cleavage of 0.
With A11C A59G U70A A118G the self-cleavage was 0.4.
A5C C34U U37C U57C A63U gave a self-cleavage of 0.57.
With A5G C112A A118G the self-cleavage was 0.02.
With C6U G20A G104A A134G the self-cleavage was 0.08.
C17U U38C A96G U97A A129G showed a self-cleavage of 1.82.
Variant A55U A90G A135C has a self-cleavage of 0.97.
In the case of A60U C85G A96G U124C, the self-cleavage is reported as 0.69.
A18U A68C A111U G138A gave a self-cleavage of 0.03.
With U19C A51G A52G A60G A64G A66G A69G A89G the self-cleavage was 0.67.
In the case of U12C A96G U131C A134G, the self-cleavage is reported as 0.52.
With U2C A33G A62G U70C U87C the self-cleavage was 0.33.
Work on U19C A36U U39C A55U A63G U124C A126G yielded a self-cleavage of 0.24.
Work on U37G A59U A86G yielded a self-cleavage of 1.88.
A36G A67G U132C gave a self-cleavage of 1.71.
With A23G A111G U120C U131C the self-cleavage was 0.
Work on C16U A33C A47G U49G A95G yielded a self-cleavage of 1.12.
A24G A55G A94U U108C showed a self-cleavage of 0.02.
For U37C A59U A117G, the self-cleavage was 2.14.
A22G U131C A140G gave a self-cleavage of 1.12.
Variant A22G A52G A96G has a self-cleavage of 0.99.
With U39C U43C U49C G53A U108C A117G the self-cleavage was 0.01.
A4G U49C A89U gave a self-cleavage of 0.77.
With A60G C113U A117G the self-cleavage was 0.02.
With U9C U49A A94G the self-cleavage was 1.48.
U43C A114U U132C gave a self-cleavage of 0.03.
In the case of U87C A116U A117G A118G A129C, the self-cleavage is reported as 0.02.
Variant G14U A55G A111G has a self-cleavage of 0.05.
A60C A114U A135G gave a self-cleavage of 0.05.
Work on U37G U43C A64U A94G U97C yielded a self-cleavage of 2.08.
In the case of A91U U102C A126G, the self-cleavage is reported as 1.79.
A11G A13G U39C A78G A94U C107G A116G showed a self-cleavage of 0.03.
For A91G A111G U132C, the self-cleavage was 0.01.
Work on A96G U122C A126U yielded a self-cleavage of 1.25.
In the case of G80U A86G U108C, the self-cleavage is reported as 0.01.
With U39C A114G A118G the self-cleavage was 0.15.
With A55G A82U U103C the self-cleavage was 0.08.
Variant U9C U39A A62G A68G has a self-cleavage of 1.42.
For A59G A90U A116G A117G, the self-cleavage was 0.11.
Work on A52G A89U A91G U131C yielded a self-cleavage of 1.87.
With U43C A52G A56G A95G the self-cleavage was 1.98.
Variant C32A U37C A59G A63G has a self-cleavage of 2.15.
U57A A67G U103C A116U U132A gave a self-cleavage of 0.1.
Work on A33G A91G A140G yielded a self-cleavage of 0.51.
Variant A60U A68G A114G A125G has a self-cleavage of 0.34.
U70C A110G A118G U122C A125G showed a self-cleavage of 0.01.
Work on A92G A94U A111G yielded a self-cleavage of 0.01.

— the RNAGym collection of RNA variant scans (doi:10.7554/elife.90254)
